# This is one part of the list. The main result of the screen is listed elsewhere. These columns were measured beside it and carry no call. For part of these data: Compounds called inactive in the main read-out are mostly missing here. For part of these data: Potencies come from curve fits of mixed quality, noted in brackets.
# What was measured:
# [1] = qHTS Assay for Lipid Storage Modulators (AID 1519); settings: Drosophila S3 cells, BODIPY lipid droplet/cell ratio, laser cytometry, cells loaded with oleic acid
# Outline: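 Cells seeded at 5,000 per well were treated with compounds over a concentration series and loaded with oleic acid (400 uM, as added). Lipid droplet fluorescence (488 nm excitation, 500-530 nm channel) was read by laser-scanning cytometry and normalized to 20 uM Triacsin C.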
# [2] = qHTS Assay for Modulators of Human Peripheral Myelin Protein 22 (PMP22) Expression/Activity (AID 1967); settings: Cell-based PMP22 reporter, dual-color luciferase ratio
# Outline: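 Quantitative HTS in a mouse Schwann cell line expressing dual click beetle luciferases: Pmp22 promoter (green) and control EF-alpha promoter (red). After 24h treatment, corrected green/red signal ratio gave %Activity relative to untreated cells.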
# [3] = qHTS drug screen for cell cycle checkpoint inhibitors in PARPi-resistant BRCA-mutant ovarian cancer cell lines. (AID 1963452); settings: PEO1/OlaR viability, CellTiter-Glo luminescence, 96 h
# Outline: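 PEO1, PEO4 and PEO1/OlaR ovarian cancer cells, 600 per well, exposed 96 h at 37C to a dilution series. Viability read by CellTiter-Glo luminescence, normalized to DMSO and empty wells; activity summarized as Z-AUC.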
# [4] = qHTS for identification of novel therapeutic agents for treatment of microphthalmiaassociated transcription factor (MiT) renal cell carcinoma (RCC) (AID 1963991); settings: CellTiter-Glo, 48 h; for z-score: stronger effect = lower value
# Outline: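 Three TFE3-fusion RCC lines (UOK109, UOK124, UOK145), 500 cells/well in complete medium, were treated with MIPE 4.0 compounds for 48 hours at 37 C. Viability was by CellTiter-Glo luminescence, normalized to DMSO (100%) and empty wells (0%); curves fitted over 11 concentrations.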
# [5] = qHTS Validation Assay to Find Inhibitors of Chronic Active B-Cell Receptor Signaling (AID 485345); settings: ABC-DLBCL cells, chronic BCR signaling reporter; measured here: CBR control luciferase (viability counter)
# Outline: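 Read-out: ratio of filter-corrected green (IkappaBalpha fusion) to red (native) luciferase signal in doxycycline-induced TMD8 cells after 4 h at 37C. Titration spanned 46 uM–3 nM; Data were normalised to basal cells and 10 uM MG-132 wells.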
# [6] = target: Histamine N-methyltransferase (Homo sapiens) (UniProt P50135); assay: Confirmatory Screen for Target Class Profiling of Small Molecule Inhibitors of Methyltransferases (AID 1745852); settings: MTase-Glo luminescence, SAH detection, recombinant enzyme; measured here: HNMT inhibition potency;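 note: inhibitor potency for blocking SAH production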
# UniProt P50135, sequence (P50135 whole entry, looked up): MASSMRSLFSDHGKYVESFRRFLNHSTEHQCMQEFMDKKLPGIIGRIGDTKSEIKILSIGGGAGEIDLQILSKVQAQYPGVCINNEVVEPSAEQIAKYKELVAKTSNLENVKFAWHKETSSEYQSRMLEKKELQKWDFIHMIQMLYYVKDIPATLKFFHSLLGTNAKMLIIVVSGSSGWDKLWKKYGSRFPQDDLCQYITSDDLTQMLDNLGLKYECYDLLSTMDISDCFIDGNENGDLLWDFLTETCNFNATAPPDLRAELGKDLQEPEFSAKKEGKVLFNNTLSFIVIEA
# [7] = qHTS assay for small molecule antagonists of peroxisome proliferator-activated receptor delta signaling (AID 588535); settings: HEK293T PPARd-UAS-bla, beta-lactamase FRET ratio, 18 h; 460 nm channel;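 note: cells co-treated with a PPAR-delta agonist as stimulator during compound exposure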
# Outline: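 Cell-based beta-lactamase assay in antagonist mode: 4000 HEK293T PPAR-delta-UAS-bla cells per well, 5 hr preincubation then 18 hr compound incubation at 37 C. IC50 obtained by Hill equation fitting.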
# [8] = qHTS assay for small molecule agonists of retinoid X receptor alpha signaling (AID 588544); settings: HEK293T RXRa-UAS-bla, beta-lactamase reporter, 18 h; 530 nm emission
# [9] = S16 Schwann cell PMP22 intronic element beta-lactamase assay (AID 624044); settings: S16 rat Schwann cells, PMP22 element beta-lactamase FRET, 24 h; note: nearly all actives have a fitted effect of over 15% in size
# Outline: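 Rat S16 Schwann cells with beta-Lac driven by a PMP22 intronic element, compound-treated 24 h at 37 °C. LiveBLAzer FRET B/G read: 460 nm normalized to potassium clavulanate vs DMSO; 535 nm FRET as viability; concentration-effect curves classified.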
# [10] = measured here: cell count channel max response
# [11] = measured here: lipid channel max response
# [12] = measured here: red reporter channel AC50, EF-alpha promoter control reporter in MSC80 mouse Schwann cells
# [13] = TFE3-RCC UOK109 viability, measured here: UOK109 Z-AUC
# [14] = TFE3-RCC viability, measured here: UOK124 Z-AUC
# [15] = TFE3-RCC viability, measured here: UOK145 Z-AUC
# [16] = measured here: green reporter channel AC50, mouse Pmp22 promoter in mouse Schwann cells
# [17] = measured here: PEO1 parental viability
# [18] = TFE3-RCC viability, measured here: UOK124 cell viability
# [19] = measured here: 460 nm blue channel
# Tags give direction and shape of the fitted curve.
smiles,measurement,setting,value
CN(C)C(=O)/N=N/C(=O)N(C)C,max response,[1]; [10],29.7%
same,max response,[1]; [11],30%
same,AC50,[2]; [12],"95.3 µM [falling, single point]"
NC(=O)c1cccc(N)c1,max response,[1]; [10],39.7%
same,max response,[1]; [11],40.2%
same,AC50,[3]; measured here: PEO4 viability,"24.5 µM [falling, single point]"
same,z-score,[4]; [13],-0.216
same,z-score,[4]; [14],0.0823
same,z-score,[4]; [15],0.602
Fc1ccc(C(OCCCc2cnc[nH]2)c2ccc(F)cc2)cc1,max response,[1]; [10],47.5%
same,max response,[1]; [11],51.1%
same,AC50,[2]; [16],"75.7 µM [falling, partial curve]"
same,AC50,[2]; [12],"84.9 µM [falling, partial curve]"
same,AC50,[5],"18.4 µM [falling, single point]"
same,IC50,[6],"15.3 µM [falling, partial curve]"
CCOC(=O)C12CC1/C(=N/O)c1ccccc1O2 (configuration not stated),max response,[1]; [10],31%
same,max response,[1]; [11],30.6%
same,AC50,[2]; [12],"75.7 µM [falling, partial curve, poor fit]"
Nc1nc(OCc2ccccc2)c2[nH]cnc2n1,max response,[1]; [10],91.5%
same,max response,[1]; [11],97.8%
same,z-score,[4]; [13],0.513
same,z-score,[4]; [14],1.17
same,z-score,[4]; [15],0.731
CCc1c(C)[nH]c2c1C(=O)C(CN1CCOCC1)CC2 (configuration not stated),max response,[1]; [10],45.4%
same,max response,[1]; [11],45.6%
same,AC50,[2]; [16],"84.9 µM [falling, single point]"
same,IC50,[6],"27.3 µM [falling, single point]"
CCC(C)N(C)C(=O)c1cc2ccccc2c(-c2ccccc2Cl)n1 (configuration not stated),max response,[1]; [10],-13.7%
same,max response,[1]; [11],-14.3%
same,AC50,[2]; [16],"75.7 µM [falling, single point]"
same,AC50,[2]; [12],"75.7 µM [falling, single point]"
CC(COc1ccccc1)N(CCCl)Cc1ccccc1 (configuration not stated),max response,[1]; [10],47.9%
same,max response,[1]; [11],49.6%
same,z-score,[4]; [13],0.496
same,z-score,[4]; [14],0.687
same,z-score,[4]; [15],-1.95
Cc1[nH]c(=O)c(C#N)cc1-c1ccncc1,max response,[1]; [10],38%
same,max response,[1]; [11],51.7%
same,max response,[7],46.8%
same,max response,[8],-0.182%
same,AC50,[3]; [17],"0.0069 µM [falling, full curve, poor fit]"
same,z-score,[4]; [13],-0.411
same,z-score,[4]; [14],0.863
same,z-score,[4]; [15],0.19
COc1ccc(CCN(C)CCCOc2ccc(S(=O)(=O)c3[nH]c4ccccc4c3C(C)C)cc2)cc1OC,max response,[1]; [10],29.5%
same,max response,[1]; [11],-29.6%
same,AC50,[3]; [17],"19.5 µM [falling, partial curve]"
same,AC50,[3]; measured here: PEO4 viability,"13.8 µM [falling, single point]"
same,z-score,[4]; [13],0.785
same,z-score,[4]; [14],0.509
same,AC50,[4]; [18],"23.5 µM [falling, single point]"
same,z-score,[4]; [15],0.399
same,AC50,"[4]; TFE3-RCC viability, measured here: UOK145 cell viability","0.935 µM [falling, partial curve, poor fit]"
CN[C@H](CC(C)C)C(=O)N[C@H]1C(=O)N[C@@H](CC(N)=O)C(=O)N[C@H]2C(=O)N[C@H]3C(=O)N[C@H](C(=O)N[C@H](C(=O)O)c4cc(O)cc(O)c4-c4cc3ccc4O)[C@H](O)c3ccc(c(Cl)c3)Oc3cc2cc(c3O[C@@H]2O[C@H](CO)[C@@H](O)[C@H](O)[C@H]2O[C@H]2C[C@](C)(N)[C@H](O)[C@H](C)O2)Oc2ccc(cc2Cl)[C@H]1O,max response,[1]; [10],44.9%
same,max response,[1]; [11],47.3%
same,AC50,[3]; [17],"7.56 µM [rising, single point]"
O=C1N=C(O)CN1/N=C/c1ccc(-c2ccc([N+](=O)[O-])cc2)o1,max response,[1]; [10],-16.5%
same,max response,[1]; [11],-15%
same,AC50,[2]; [16],"2.39 µM [rising, full curve, poor fit]"
same,AC50,[2]; [12],"95.3 µM [falling, single point]"
COc1nc(C)nc(Cl)c1NC1=NCCN1,max response,[1]; [10],44.9%
same,max response,[1]; [11],43.7%
same,AC50,[9]; [19],"4.77 µM [falling, full curve]"
same,AC50,[9]; measured here: 530 nm viability channel,"6.31 µM [falling, partial curve]"
same,AC50,[3]; [17],"5.49 µM [rising, partial curve, poor fit]"
CC(O)[C@@H](O)[C@H]1CNc2nc(N)[nH]c(=O)c2N1 (some centres not stated),max response,[1]; [10],-36.2%
same,max response,[1]; [11],-37.1%
same,AC50,[2]; [12],"84.9 µM [falling, single point]"
CC(/C=C/c1cccc(Oc2ccc(F)cc2)c1)N(O)C(N)=O (configuration not stated),max response,[1]; [10],36.5%
same,max response,[1]; [11],37.8%
same,AC50,[2]; [12],"67.5 µM [falling, partial curve, poor fit]"
CN(C)CC[C@@H](c1ccc(Br)cc1)c1ccccn1,max response,[1]; [10],55%
same,max response,[1]; [11],54%
same,AC50,[2]; [16],"84.9 µM [falling, single point]"
same,AC50,[2]; [12],"84.9 µM [falling, single point]"
same,IC50,[6],"21.7 µM [falling, partial curve, poor fit]"
CC(C)NCC(O)COc1ccc(COCCOC(C)C)cc1 (configuration not stated),max response,[1]; [10],58.2%
same,max response,[1]; [11],60.6%
same,AC50,[9]; [19],"0.501 µM [falling, full curve, poor fit]"
same,z-score,[4]; [13],0.245
same,z-score,[4]; [14],0.116
same,AC50,[4]; [18],"0.0209 µM [rising, full curve, poor fit]"
same,z-score,[4]; [15],2.93
CCCCCCCCCC(=O)NC(CN1CCOCC1)[C@H](O)c1ccccc1 (some centres not stated),max response,[1]; [10],55.7%
same,max response,[1]; [11],55.2%
same,AC50,[2]; [16],"47.8 µM [falling, partial curve]"
same,AC50,[2]; [12],"60.1 µM [falling, partial curve]"
